In the supplement of paper PMC4604168 (melanoma cell lines):
The list shows a part of the results. Single values are uncertain, as repeats are few or missing.

The compounds below were run on WM3526 (assay: cell count relative to DMSO control; melanoma cells; higher = more viable cells). Conditions: library dose: low library concentration; 72 h.
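Further: cell number obtained by counting DAPI-stained nuclei in high-throughput microscope images with image analysis software, screen run in 1,536-well plates.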

Row | Compound | cell count
1 | CCCS(=O)(=O)Nc1ccc(F)c(C(=O)c2c[nH]c3ncc(Cl)cc23)c1F + N#Cc1c(O)c2c(-c3ccc(-c4ccccc4O)cc3)csc2[nH]c1=O [A769662] (first compound 0.08 µM, partner dose 2 µM) | 81.4%
2 | CN(c1ncccc1CNc1nc(Nc2ccc3c(c2)CC(=O)N3)ncc1C(F)(F)F)S(C)(=O)=O + CNC(=O)c1cc(Oc2ccc(NC(=O)Nc3ccc(Cl)c(C(F)(F)F)c3)cc2)ccn1 [sorafenib] (first compound 0.08 µM, partner dose 0.4 µM) | 100%
3 | CS(=O)(=O)c1ccc(C(=O)Nc2ccc(Cl)c(-c3ccccn3)c2)c(Cl)c1 [vismodegib] + COc1ccc2c(c1)CCC1C2CCC2(C)C(NCCCCCCN3C(=O)C=CC3=O)CCC12 [U73122] (first compound 1 µM, partner dose 0.4 µM) | 128%
4 | CS(=O)(=O)c1ccc(C(=O)Nc2ccc(Cl)c(-c3ccccn3)c2)c(Cl)c1 [vismodegib] + NC(=O)Nc1cc(-c2cccc(F)c2)sc1C(=O)N[C@H]1CCCNC1 [AZD7762] (first compound 1 µM, partner dose 0.02 µM) | 83.7%
5 | NC1(c2ccc(-c3nc4ccn5c(=O)[nH]nc5c4cc3-c3ccccc3)cc2)CCC1 + COc1cc2c(Oc3ccc4[nH]c(C)cc4c3F)ncnc2cc1OCCCN1CCCC1 [cediranib] (first compound 0.4 µM, partner dose 0.4 µM) | 79.8%
6 | C=C(c1ccc(C(=O)O)cc1)c1cc2c(cc1C)C(C)(C)CCC2(C)C [Bexarotene] + COc1ccc(COc2ccc(Cc3cnc(N)nc3N)cc2OC)cc1 [GW2580] (first compound 2 µM, partner dose 1 µM) | 93.7%
7 | CS(=O)(=O)c1ccc(C(=O)Nc2ccc(Cl)c(-c3ccccn3)c2)c(Cl)c1 [vismodegib] + CC(=O)c1c(C)c2cnc(Nc3ccc(N4CCNCC4)cn3)nc2n(C2CCCC2)c1=O [palbociclib] (first compound 1 µM, partner dose 0.04 µM) | 81.1%
8 | CN(c1ncccc1CNc1nc(Nc2ccc3c(c2)CC(=O)N3)ncc1C(F)(F)F)S(C)(=O)=O + Nc1nc(F)nc2c1ncn2[C@@H]1O[C@H](CO)[C@@H](O)[C@@H]1O [fludarabine] (first compound 0.08 µM, partner dose 0.2 µM) | 27.6%
9 | CS(=O)(=O)c1ccc(C(=O)Nc2ccc(Cl)c(-c3ccccn3)c2)c(Cl)c1 [vismodegib] + COc1ccc(COc2ccc(Cc3cnc(N)nc3N)cc2OC)cc1 [GW2580] (first compound 1 µM, partner dose 1 µM) | 97.9%
10 | CN(c1ncccc1CNc1nc(Nc2ccc3c(c2)CC(=O)N3)ncc1C(F)(F)F)S(C)(=O)=O + O=S(=O)(c1ccccc1)N(CC(F)(F)F)c1ccc(C(O)(C(F)(F)F)C(F)(F)F)cc1 [T0901317] (first compound 0.08 µM, partner dose 1.4 µM) | 67.9%
11 | CCCS(=O)(=O)Nc1ccc(F)c(C(=O)c2c[nH]c3ncc(Cl)cc23)c1F + Cn1cc(/C=C2\C(=O)Nc3cccnc32)c2ccccc21 [GW441756] (first compound 0.08 µM, partner dose 0.4 µM) | 73.4%
12 | C=C(c1ccc(C(=O)O)cc1)c1cc2c(cc1C)C(C)(C)CCC2(C)C [Bexarotene] + Oc1nc(-c2ccc(C(F)(F)F)cc2)nc2c1CSCC2 [XAV939] (first compound 2 µM, partner dose 2 µM) | 93.3%
13 | CN(c1ncccc1CNc1nc(Nc2ccc3c(c2)CC(=O)N3)ncc1C(F)(F)F)S(C)(=O)=O + COc1cc2c(Oc3ccc4[nH]c(C)cc4c3F)ncnc2cc1OCCCN1CCCC1 [cediranib] (first compound 0.08 µM, partner dose 0.4 µM) | 76.3%
14 | CCCS(=O)(=O)Nc1ccc(F)c(C(=O)c2c[nH]c3ncc(Cl)cc23)c1F + COc1ccc(COc2ccc(Cc3cnc(N)nc3N)cc2OC)cc1 [GW2580] (first compound 0.08 µM, partner dose 1 µM) | 72.3%
15 | NC1(c2ccc(-c3nc4ccn5c(=O)[nH]nc5c4cc3-c3ccccc3)cc2)CCC1 + O=C(O)c1ccc2c(c1)nc(Nc1cccc(Cl)c1)c1ccncc12 [CX4945] (first compound 0.4 µM, partner dose 0.4 µM) | 57.8%
16 | CN(c1ncccc1CNc1nc(Nc2ccc3c(c2)CC(=O)N3)ncc1C(F)(F)F)S(C)(=O)=O + O=C(Nc1cccc(Cl)c1)Nc1ncc(CCNc2ncnc3ccsc23)s1 [SNS314] (first compound 0.08 µM, partner dose 0.0008 µM) | 85%

Row | Compound | cell count
17 | CN(c1ncccc1CNc1nc(Nc2ccc3c(c2)CC(=O)N3)ncc1C(F)(F)F)S(C)(=O)=O + O=C(CCCCCCC(=O)Nc1ccccc1)NO [vorinostat] (first compound 0.08 µM, partner dose 0.08 µM) | 106%
18 | NC1(c2ccc(-c3nc4ccn5c(=O)[nH]nc5c4cc3-c3ccccc3)cc2)CCC1 + CS(=O)(=O)CCNCc1ccc(-c2ccc3ncnc(Nc4ccc(OCc5cccc(F)c5)c(Cl)c4)c3c2)o1 [lapatinib] (first compound 0.4 µM, partner dose 0.8 µM) | 54.7%
19 | C=C(c1ccc(C(=O)O)cc1)c1cc2c(cc1C)C(C)(C)CCC2(C)C [Bexarotene] + c1cc(-c2cnn3cc(-c4ccc(OCCN5CCCCC5)cc4)cnc23)ccn1 [Dorsomorphin] (first compound 2 µM, partner dose 0.4 µM) | 87.1%
20 | CN(c1ncccc1CNc1nc(Nc2ccc3c(c2)CC(=O)N3)ncc1C(F)(F)F)S(C)(=O)=O + CC(C)C[C@H](NC(=O)[C@H](Cc1ccccc1)NC(=O)c1cnccn1)B(O)O [Bortezomib] (first compound 0.08 µM, partner dose 0.001 µM) | 83.8%
21 | NC1(c2ccc(-c3nc4ccn5c(=O)[nH]nc5c4cc3-c3ccccc3)cc2)CCC1 + COc1cc(Nc2ncc(F)c(Nc3ccc4c(n3)NC(=O)C(C)(C)O4)n2)cc(OC)c1OC [Tamatinib] (first compound 0.4 µM, partner dose 0.4 µM) | 53.2%
22 | C=C(c1ccc(C(=O)O)cc1)c1cc2c(cc1C)C(C)(C)CCC2(C)C [Bexarotene] + OCc1c[nH]c2ccccc12 [Indole-3-carbinol] (first compound 2 µM, partner dose 0.8 µM) | 78.5%
23 | C=C(c1ccc(C(=O)O)cc1)c1cc2c(cc1C)C(C)(C)CCC2(C)C [Bexarotene] + N#Cc1c(O)c2c(-c3ccc(-c4ccccc4O)cc3)csc2[nH]c1=O [A769662] (first compound 2 µM, partner dose 2 µM) | 82.6%
24 | C=C(c1ccc(C(=O)O)cc1)c1cc2c(cc1C)C(C)(C)CCC2(C)C [Bexarotene] + CCc1ccc(CCOc2ccc(CC3SC(=O)NC3=O)cc2)nc1 [pioglitazone] (first compound 2 µM, partner dose 2 µM) | 83%
25 | NC1(c2ccc(-c3nc4ccn5c(=O)[nH]nc5c4cc3-c3ccccc3)cc2)CCC1 + NCC(=O)Nc1ccc(-n2nc(C(F)(F)F)cc2-c2ccc3c(ccc4ccccc43)c2)cc1 [OSU03012] (first compound 0.4 µM, partner dose 1 µM) | 58.6%
26 | NC1(c2ccc(-c3nc4ccn5c(=O)[nH]nc5c4cc3-c3ccccc3)cc2)CCC1 + c1cc(-c2cnn3cc(-c4ccc(OCCN5CCCCC5)cc4)cnc23)ccn1 [Dorsomorphin] (first compound 0.4 µM, partner dose 0.4 µM) | 64.3%
27 | NC1(c2ccc(-c3nc4ccn5c(=O)[nH]nc5c4cc3-c3ccccc3)cc2)CCC1 + C[C@]1(c2nc3c(C(N)=O)cccc3[nH]2)CCCN1 [Veliparib] (first compound 0.4 µM, partner dose 1.4 µM) | 73.1%
28 | C=C(c1ccc(C(=O)O)cc1)c1cc2c(cc1C)C(C)(C)CCC2(C)C [Bexarotene] + CCCCCCCCCCCC1=C(O)C(=O)C=C(O)C1=O [Embelin] (first compound 2 µM, partner dose 1.2 µM) | 83.3%
29 | CS(=O)(=O)c1ccc(C(=O)Nc2ccc(Cl)c(-c3ccccn3)c2)c(Cl)c1 [vismodegib] + COc1ccc(Cl)c(Nc2nc3ccccc3nc2NS(=O)(=O)c2cccc(NC(=O)C(C)(C)N)c2)c1 [XL147] (first compound 1 µM, partner dose 0.8 µM) | 89%
30 | NC1(c2ccc(-c3nc4ccn5c(=O)[nH]nc5c4cc3-c3ccccc3)cc2)CCC1 + CC1(C)NC(=O)N(c2ccc([N+](=O)[O-])c(C(F)(F)F)c2)C1=O [nilutamide] (first compound 0.4 µM, partner dose 1 µM) | 77%
31 | CS(=O)(=O)c1ccc(C(=O)Nc2ccc(Cl)c(-c3ccccn3)c2)c(Cl)c1 [vismodegib] + COc1cc2ncnc(Nc3ccc(Oc4ccccc4)cc3)c2cc1OC [SrcI1] (first compound 1 µM, partner dose 2 µM) | 99.4%
32 | CS(=O)(=O)c1ccc(C(=O)Nc2ccc(Cl)c(-c3ccccn3)c2)c(Cl)c1 [vismodegib] + CN(C)S(=O)(=O)c1ccc2c(c1)/C(=C/c1cc3c([nH]1)CCCC3)C(=O)N2 [SU6656] (first compound 1 µM, partner dose 0.4 µM) | 94.6%
